Test results taken from PubChem BioAssay AID485344 (National Center for Advancing Translational Sciences (NCATS), 2010).
In all, about 340,000 compounds went through this assay and about 6,900 (2%) were called active. Cut-off read from the data, not from the text of the source: active = inhibition above about 30%; inactive = below that, where a call was filed. This is a selection; strong and weak results do not stand in their true shares. Where no call is shown, the source filed none.

molecular target: D(2) dopamine receptor (Homo sapiens) (UniProt P14416); experiment: HTS Assay for Allosteric Antagonists of the Human D2 Dopamine Receptor: Primary Screen for Antagonists; conditions: HEK293 TREx D2 cells, calcium flux, dopamine EC80; at 10 µM; stronger effect = higher value; note: 0% is about no effect
Outline: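 Overnight-induced (tetracycline, 30 C) HEK293 T-REx cells carrying force-coupled D2 receive a no-wash calcium dye, then compound, then EC80 dopamine at 180 s; signals are read kinetically throughout.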

Chain of UniProt P14416 (P14416 whole entry, looked up): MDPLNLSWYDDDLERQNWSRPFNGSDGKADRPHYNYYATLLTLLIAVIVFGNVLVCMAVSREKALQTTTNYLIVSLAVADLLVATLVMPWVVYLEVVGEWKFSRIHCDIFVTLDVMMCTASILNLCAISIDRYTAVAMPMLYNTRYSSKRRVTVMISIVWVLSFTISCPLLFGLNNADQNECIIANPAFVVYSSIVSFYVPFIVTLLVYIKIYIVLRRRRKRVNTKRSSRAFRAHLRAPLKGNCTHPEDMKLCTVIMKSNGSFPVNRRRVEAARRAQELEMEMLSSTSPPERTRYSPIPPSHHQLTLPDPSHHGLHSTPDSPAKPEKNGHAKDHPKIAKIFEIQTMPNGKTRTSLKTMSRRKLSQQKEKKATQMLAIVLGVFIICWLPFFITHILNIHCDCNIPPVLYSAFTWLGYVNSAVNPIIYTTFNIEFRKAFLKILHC

Structure (SMILES)	inhibition
CC(C)CCNc1nc2c(S(=O)(=O)c3ccc(Br)cc3)nnn2c2ccsc12	0.302%
CCCCCCc1cc2cc(-c3nnc(-c4ccc(C)cc4)o3)c(=O)oc2cc1O	14.9%
COC(=O)c1cc2sccc2n1Cc1nc(-c2cccc(Br)c2)oc1C	6.49%
COc1ccccc1Nc1c2c(nc3ccc(NC(=O)c4cccc(OC)c4OC)cc13)CCCC2	7.93%
COc1ccc(CCNC(=O)c2cnc3sc(N4CCC(C)CC4)nn3c2=O)cc1OC	0.691%
CC(=O)Nc1ccc(S(=O)(=O)NCc2ccc(C(=O)NCc3ccc(Cl)cc3)cc2)cc1	-11.3%
O=C(Nc1ccc(C(F)(F)F)cc1)C1CCCN(S(=O)(=O)c2cccc3cccnc23)C1 (stereo not given)	-3.32%
CCC1CCCCN1C(=O)CSc1n[nH]c(-c2ccccc2Cl)n1 (stereo not given)	6.3%
Cn1c(C(=O)NCCN2CCc3ccccc3C2)cc2c(=O)[nH]c3ccccc3c21	active: 32.3%
COc1cccc(CNC(=O)c2ccc(-c3nc(CS(=O)(=O)c4ccccc4)c(C)o3)cc2)c1	4.2%
COC(=O)c1ccc2c(=O)n(CCCCCC(=O)N3CCN(c4cc(Cl)ccc4C)CC3)c(=O)[nH]c2c1	-13.4%
CN(C)CCNC(=O)CN1C(=O)CCn2nc(-c3cn(C)c4ccccc34)cc21	7.02%
Cc1cc(C)cc(-n2nnc(-c3nsc(NC(=O)c4ccccc4Cl)n3)c2C)c1	-10.9%
CCc1ccc(NC(=O)Cn2ncc3c(C)n(Cc4cccc(Cl)c4)c(C)c3c2=O)cc1	1.56%
O=C(COC(=O)CC1SC(N2CCCC2)=NC1=O)Nc1ccc(Br)cc1 (stereo not given)	active: 30.7%
COc1ccc(CCNC(=O)C2CCN(c3ncnc4c3nc3n4CCCCC3)CC2)c(OC)c1	-7.98%
CCOc1ccc(S(=O)(=O)c2c[nH]c3ccccc3c2=O)cc1	0.898%
Cc1ccccc1C(=O)Nc1ccc2nc(Nc3cccc(C(F)(F)F)c3)cc(C)c2c1	-12.2%
CCCc1cc(=O)oc2cc(C)c3c(-c4cccc(OC)c4)coc3c12	2.26%
CC(C)(C)C1CCc2c(sc(NC(=O)CCC(=O)O)c2C(=O)Nc2ccccc2C(F)(F)F)C1 (stereo not given)	7.34%
NS(=O)(=O)c1ccc(CCNC(=O)c2ccc3nc(Cc4ccccc4)oc3c2)cc1	9.05%
CC1CCCN(Cc2nc3c(c(=O)n(C)c(=O)n3C)n2Cc2ccc(Cl)cc2Cl)C1 (stereo not given)	-15.1%
CCOC(=O)c1cccc(NC(=O)N2CC(CC)Sc3ccccc32)c1 (stereo not given)	6.93%
Cc1ccccc1OCC(=O)Nc1ccc(OCc2cc(=O)n3ccsc3n2)cc1	10.6%

Structure (SMILES)	inhibition
CCOC(=O)c1cccc(NC(=O)N2CCC(CN3CCc4ccccc4C3)CC2)c1	-21.2%
O=C(Cc1ccc(F)cc1)NCc1nc2cccnc2n1Cc1ccc(F)cc1	4.33%
FC(F)(F)c1cccc(N2CCN(Cc3nnc(-c4ccc5c(c4)OCO5)o3)CC2)c1	-3.43%
CCCn1cnc2c(N)c(C)c(C)cc21	active: 32.4%
COc1cc([N+](=O)[O-])ccc1NC(=O)N1CCN(c2cc(-c3noc(C)n3)ccc2C)CC1	-12%
COc1ccc(NC(=O)C(C)n2nnc3sc(-c4ccccc4)cc3c2=O)cc1Cl (stereo not given)	-5.19%
CCOc1ccc(CCNC(=O)c2cc(=O)[nH]c3ccc(S(=O)(=O)N4CCCCC4)cc23)cc1OCC	2.95%
COc1cccc(NC(=O)C(=O)NCCc2csc(-c3ccc(C(F)(F)F)cc3)n2)c1	15.1%
CCOc1ccccc1CNC(=O)C1CCN(S(=O)(=O)c2c(C)noc2/C=C/c2ccc(C)cc2)CC1	-3.39%
Cc1cccc(-c2nc(CSCC(=O)N3CCN(c4ccccc4)CC3)c(C)o2)c1	-9.6%
COc1ccccc1Cc1nc2ccccc2nc1SCC(=O)N1CCc2ccccc21	10.5%
COc1ccccc1N1CCN(c2ccc(-c3nc(-c4ccccc4C)no3)cc2[N+](=O)[O-])CC1	-18.1%
CCOC(=O)c1ccc(NC(=O)CSc2nccn2-c2ccc(OCC)cc2)cc1	-9.65%
Cc1cccc(N2CCN(C(=O)Cn3cnc4sc(C)c(S(=O)(=O)N5CCN(c6ncccn6)CC5)c4c3=O)CC2C)c1 (stereo not given)	-1.19%
FC(F)(F)c1cccc(-c2nnn3c2nc(NC2CCCCC2)c2ccccc23)c1	9.43%
COc1ccccc1CCNC(=O)Cc1c(C)c2c(cc(C)c3c(C)c(C)oc32)oc1=O	-0.779%
CCC(C)NC(=O)C1CCN(C(=O)c2ccc(-n3ccc4ccccc43)s2)CC1 (stereo not given)	1.68%
Cc1nc(-c2ccccc2)sc1CCNC(=O)C(=O)Nc1ccc2c(c1)OCCO2	14.1%
COc1cc(OC)c(NC(=O)N2CCc3c(sc4c3CCCC4)C2c2ccccc2)cc1Cl (stereo not given)	-0.363%
O=C(Nc1nnc(S(=O)(=O)N2CCCCCC2)s1)c1ccccc1Cl	-0.0106%
Cc1cccc(NC(=O)C(Cc2ccccc2)n2cccc2)c1C (stereo not given)	9.64%
CCn1ccc2cc(S(=O)(=O)N3CCCN(C(=O)Nc4ccc(C)c(F)c4)CC3)ccc21	-5.5%
Cc1cccc(N(C)c2nc3ccc(C)cc3n3cnnc23)c1	10.7%
CCCCOc1ccccc1C(=O)Nc1nonc1-c1ccccc1	23.1%

Structure (SMILES)	inhibition
CCCc1ccc(OCC(=O)Nc2sc3c(c2C(=O)OC)CCCCC3)cc1	-6.06%
CC(C)CC(=O)NCC1(N(C)C)CCCCC1	-8.73%
COc1ccc(CNC(=O)C(C)N2Cc3ccccc3C2=O)cc1 (stereo not given)	-18.5%
CC12CCC(C(=O)N(CCCCN3CCN(c4ccccn4)CC3)C1=O)C2(C)C (stereo not given)	active: 84.4%
Cc1ccc2c(=O)c(C(=O)c3ccc(F)cc3)cn(CC(=O)NCc3ccccc3Cl)c2n1	-0.597%
Cc1ccc(-c2nn(CC(=O)NC3CCCCC3)c3c2cnc2ccccc23)cc1	2.29%
Cc1ccc(Cl)cc1N1CCN(C(=O)c2cccn2-c2nnc(N3CCCC3)s2)CC1	10.6%
CCN(C(=O)c1cc(S(=O)(=O)N2CCc3ccccc32)cn1C)c1cccc(C)c1	0.29%
CC1=C(C(N)=O)C(c2ccc(F)cc2)n2nc(-c3ccc(N(C)C)cc3)nc2N1 (stereo not given)	17.4%
CNS(=O)(=O)c1cn(CC(=O)Nc2ccc(C)c(N(C)C)c2)cc1S(=O)(=O)NC	-4.13%
COc1ccc(C(=O)Nc2nnc(S(=O)(=O)N(CC(C)C)c3ccccc3)s2)cc1	9.7%
COc1ccc(NC(=O)c2ccc3c(c2)nnn3C2CCCC2)cc1Cl	-6.43%
Cc1ccc(Cn2c(C(=O)O)c(CNCc3cccs3)c3ccc(C)cc32)cc1	18.5%
COc1cc(NC(=O)NCCn2nnc3cc(S(=O)(=O)N(C)C)ccc32)cc(OC)c1	6.2%
Cc1ccc(Cl)cc1NC(=O)c1ccc2snnc2c1	-14%
CC(C)C(NC(=O)c1ccccc1)C(=O)NCc1ccccn1 (stereo not given)	active: 61.3%
CC(C)(C)OC(=O)N1CCC(c2c(C(=O)NCc3ccc4c(c3)OCO4)cnn2-c2ccccc2Cl)CC1	1.72%
Cc1ccc(-c2nnc3ccccc3c2C(=O)Nc2cccc(Cl)c2)cc1	14%
Cn1c(=O)c(=O)n(C)c2cc(N3CCOCC3)c(NS(=O)(=O)c3ccc(F)c(Cl)c3)cc21	-11.2%
Cc1cc(NC(=O)CSc2nc(C(C)C)nc3sc(C)c(C)c23)no1	active: 35.3%
COc1ccc(NC(=O)c2cc3cc(C)ccc3n2C)cc1	0.963%
COc1ccccc1NC(=O)NCC1(N(C)C)CCCCC1	active: 58.7%
O=C(Nc1cc(Cl)cc(Cl)c1)c1cc(S(=O)(=O)N2CCc3ccccc3C2)ccc1F	8.92%
CCOC(=O)c1cccc(NC(=O)C2CCCN(c3nnc(C)c4c(C)n(-c5ccccc5)nc34)C2)c1 (stereo not given)	-7.06%

Structure (SMILES)	inhibition
COC(=O)c1cc(C(=O)OC)cc(-n2c(C)cc(C(=O)CC#N)c2C)c1	active: 32.7%
CCOc1ccc(CN(C)c2nc(-c3cccnc3)nc3ccccc23)cc1OC	active: 36%
COc1ccc(OC)c(C2C(C(=O)Nc3ccccc3OC)=C(C)Nc3c(C(=O)Nc4ccc(F)cc4)cnn32)c1 (stereo not given)	8.33%
COc1ccc(C(=O)Nc2c(C(=O)c3ccccc3)oc3ccccc23)cc1	4.95%
Clc1ccc(Cl)c(OCCN2CCCC2)c1	active: 46.7%
Cc1ccc(NC(=O)c2nnn(-c3ccc4c(c3)OCCO4)c2N)cc1	active: 60.4%
CCc1ccccc1Nc1cc(C(=O)NC2CCC(C)CC2)c2ccccc2n1 (stereo not given)	1.94%
CCc1c(C)sc(NC(=O)C2c3ccccc3Oc3ccccc32)c1C(=O)OC(C)C	6.06%
COc1ccc(CNC(=O)c2cc(-c3ccc(C)c(C)c3)n[nH]2)cc1	9.31%
Cc1cccc(-n2ccnc2SCC(=O)Nc2nc3ccccc3s2)c1	-2.41%
COc1ccccc1N1CCN(c2nc3c(S(=O)(=O)c4ccc(C)c(C)c4)nnn3c3ccc(Cl)cc23)CC1	-9.76%
CCOC(=O)C(=O)Nc1c(C(=O)Nc2cccc(F)c2)oc2ccccc12	-9.04%
CCOC(=O)c1ccc(NS(=O)(=O)c2cc(Br)cc3c2N(C(C)=O)C(C)C3)cc1 (stereo not given)	3.8%
CCN(CCCNC(=O)c1nn(-c2ccc(OC)c(Cl)c2)c(=O)c2c1c1ccccc1n2C)c1cccc(C)c1	10.4%
Cc1cccc(-c2nc(SCC(=O)NCc3ccco3)c3c(=O)n(C)c(=O)n(C)c3n2)c1	25.2%
Cc1ccc(Cn2c(CNS(=O)(=O)c3ccc(Cl)s3)nc3cccnc32)cc1	8.35%
Cc1cc2[nH]c(=O)c(=O)[nH]c2cc1S(=O)(=O)N1CCN(c2cccc(C)c2C)CC1	15%
CCCCNC(=S)NCc1ccc2[nH]c(C)cc2c1	active: 30.3%
COc1cc(NC(=O)c2cnc3c(-c4ccc(F)cc4)c(C)nn3c2C)cc(OC)c1	10.1%
Cc1ccc(Sc2c(C(=O)NCc3ccccc3C)[nH]c3ccccc23)cc1	16%
CCc1ccc(-c2nc(-c3cc4ccccc4oc3=O)sc2C)cc1	-2.83%
CCN(CC)S(=O)(=O)c1ccc2oc(C(=O)Nc3ccc(Br)cc3F)c(C)c2c1	-3.48%
COc1ccc(CNC(=O)CN2C(=O)CCCc3ccccc32)cc1	-4.17%
